In the supplement of paper PMC8728848:
The other results are listed elsewhere or left out.

Legend:
Test in all cases: glycan array binding signal (z-score within array); higher = stronger binding
Details in all cases: glycan notation: IUPAC condensed, linker removed
[1] = target: Gal(a1-3)Gal(b1-4)GlcNAc(b1-2)Man(a1-3)[Gal(a1-3)Gal(b1-4)GlcNAc(b1-2)Man(a1-6)]Man(b1-4)GlcNAc(b1-4)GlcNAc
How it was run: (§1)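 The binding signal is a Z-score computed within each array and averaged over linkers. Arrays of the same protein sequence at different concentrations or buffers were also averaged together. Data originate from 3228 arrays in the Consortium for Functional Glycomics database, kept only where the protein sequence was available.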

[2] = target: Gal(a1-3)Gal(b1-4)GlcNAc(b1-3)GalNAc
How it was run: as §1

[3] = target: Gal(a1-3)Gal(b1-4)GlcNAc(b1-6)GalNAc
How it was run: as §1

[4] = target: Gal(a1-3)Gal(b1-4)[Fuc(a1-3)]GlcNAc
How it was run: as §1

[5] = target: Gal(a1-3)Gal(b1-4)[Fuc(a1-3)]GlcNAc(b1-2)Man(a1-3)[Gal(a1-3)Gal(b1-4)[Fuc(a1-3)]GlcNAc(b1-2)Man(a1-6)]Man(b1-4)GlcNAc(b1-4)GlcNAc
How it was run: as §1

Gal(a1-3)GalNAc = target: Gal(a1-3)GalNAc
How it was run: as §1

[6] = target: Gal(a1-3)[Gal(a1-4)]Gal(b1-4)GlcNAc
How it was run: as §1

[7] = target: Gal(a1-4)Gal(b1-3)GlcNAc(b1-2)Man(a1-3)[Gal(a1-4)Gal(b1-3)GlcNAc(b1-2)Man(a1-6)]Man(b1-4)GlcNAc(b1-4)GlcNAc
How it was run: as §1

Gal(a1-4)Gal(b1-4)Glc = target: Gal(a1-4)Gal(b1-4)Glc
How it was run: as §1

Gal(a1-4)Gal(b1-4)GlcNAc = target: Gal(a1-4)Gal(b1-4)GlcNAc
How it was run: as §1

[8] = target: Gal(a1-4)Gal(b1-4)GlcNAc(b1-2)Man(a1-3)[Gal(a1-4)Gal(b1-4)GlcNAc(b1-2)Man(a1-6)]Man(b1-4)GlcNAc(b1-4)GlcNAc
How it was run: as §1

[9] = target: Gal(a1-4)Gal(b1-4)GlcNAc(b1-3)Gal(b1-4)Glc
How it was run: as §1

Gal(a1-4)GlcNAc = target: Gal(a1-4)GlcNAc
How it was run: as §1

Gal(a1-6)Glc = target: Gal(a1-6)Glc
How it was run: as §1

Gal(b1-2)Gal = target: Gal(b1-2)Gal
How it was run: as §1

Gal(b1-3)Gal = target: Gal(b1-3)Gal
How it was run: as §1

Gal(b1-3)Gal(b1-4)GlcNAc = target: Gal(b1-3)Gal(b1-4)GlcNAc
How it was run: as §1

Gal(b1-3)GalNAc = target: Gal(b1-3)GalNAc
How it was run: as §1

[10] = target: Gal(b1-3)GalNAc(a1-3)[Fuc(a1-2)]Gal(b1-4)Glc
How it was run: as §1

[11] = target: Gal(b1-3)GalNAc(a1-3)[Fuc(a1-2)]Gal(b1-4)GlcNAc
How it was run: as §1

Gal(b1-3)GalNAc(b1-3)Gal = target: Gal(b1-3)GalNAc(b1-3)Gal
How it was run: as §1

[12] = target: Gal(b1-3)GalNAc(b1-3)Gal(a1-4)Gal(b1-4)Glc
How it was run: as §1

[13] = target: Gal(b1-3)GalNAc(b1-4)Gal(b1-4)Glc
How it was run: as §1

[14] = target: Gal(b1-3)GalNAc(b1-4)[Neu5Ac(a2-3)]Gal(b1-4)Glc
How it was run: as §1

Gal(b1-3)GlcNAc = target: Gal(b1-3)GlcNAc
How it was run: as §1

[15] = target: Gal(b1-3)GlcNAc(a1-3)Gal(b1-4)GlcNAc
How it was run: as §1

[16] = target: Gal(b1-3)GlcNAc(a1-6)Gal(b1-4)GlcNAc
How it was run: as §1

Gal(b1-3)GlcNAc(b1-2)Man = target: Gal(b1-3)GlcNAc(b1-2)Man
How it was run: as §1

[17] = target: Gal(b1-3)GlcNAc(b1-2)Man(a1-3)[Gal(b1-3)GlcNAc(b1-2)Man(a1-6)]Man(b1-4)GlcNAc(b1-4)GlcNAc
How it was run: as §1

[18] = target: Gal(b1-3)GlcNAc(b1-2)Man(a1-3)[Gal(b1-3)GlcNAc(b1-2)Man(a1-6)]Man(b1-4)GlcNAc(b1-4)[Fuc(a1-6)]GlcNAc
How it was run: as §1

B1: Pbx2 (Cryptococcus neoformans) (protein)
chain: AVSPLPSSTELVFYSQKRRRRRICSTATGSLSTPDPTRMTSDPYKRVGMRFSSVPRLLITFLSLLLLVSAAPPCVRFADYDSINQMFIDGGPGTKVLLCPNRLYRLSGPIIFTAADQEIATYGYPTGSERAVLRVEGRNTATAIQGDCRRCARVSVKNLVVDGNRKKLGRMRDFQLATGLVVLGGNEGQSIQNSWIKNPRGFTAIHIREGDKLQCSGARVEKNEIGPVGEEYDPEKDGDDPEMSPLGRPLADGVSIACRDSFIRDNTFRDNTDAAIVVYCSPGTLIHANHIFAQSLSAMAGILMVDSTPFNGDYTGTVVRSNIIDAVSRTIRVGIGIGPTVWSDDTETILTGGSVIGNGLKGRYMGYGIAAAGLKQWTIKDNWDEAKHEGRKSARCFDEPVNPDPIGLLYNRPTMEDCTVQSGFADHDFQYLVCIDGLYDKTNPPKHDPAPLAHDPSPTNAQEDNTVQQDGGDSKSKSIEQPREASDIEAEPSVEKMFSTGSEMMDDVLEHSHQRMHEVIDHLSRRIDILGAASAGKGSGDSKISEVLDPAMSSHLEKLQRKIEHLEFSLRSQIETAIQLRSAIQGWDQEMALVTDWEYDILLDVRHKLELSSYPHDQPLDPRLMRGQSYLNNEAVLVDDHSHPSLEGENLRAMSDRARLNANEEA
[1]
  glycan array binding signal (z-score): -0.103
[2]
  glycan array binding signal (z-score): -0.139
[3]
  glycan array binding signal (z-score): -0.214
[4]
  glycan array binding signal (z-score): -0.312
[5]
  glycan array binding signal (z-score): 0.644
Gal(a1-3)GalNAc
  glycan array binding signal (z-score): -0.393
[6]
  glycan array binding signal (z-score): -0.508
[7]
  glycan array binding signal (z-score): -0.393
Gal(a1-4)Gal(b1-4)Glc
  glycan array binding signal (z-score): -0.416
Gal(a1-4)Gal(b1-4)GlcNAc
  glycan array binding signal (z-score): -0.36
[8]
  glycan array binding signal (z-score): -0.277
[9]
  glycan array binding signal (z-score): 0.145
Gal(a1-4)GlcNAc
  glycan array binding signal (z-score): -0.389
Gal(a1-6)Glc
  glycan array binding signal (z-score): -0.024
Gal(b1-2)Gal
  glycan array binding signal (z-score): -0.244
Gal(b1-3)Gal
  glycan array binding signal (z-score): -0.563
Gal(b1-3)Gal(b1-4)GlcNAc
  glycan array binding signal (z-score): -0.32
Gal(b1-3)GalNAc
  glycan array binding signal (z-score): 0.101
[10]
  glycan array binding signal (z-score): 0.111
[11]
  glycan array binding signal (z-score): -0.239
Gal(b1-3)GalNAc(b1-3)Gal
  glycan array binding signal (z-score): -0.666
[12]
  glycan array binding signal (z-score): -0.417
[13]
  glycan array binding signal (z-score): -0.512
[14]
  glycan array binding signal (z-score): -0.669
Gal(b1-3)GlcNAc
  glycan array binding signal (z-score): -0.084
[15]
  glycan array binding signal (z-score): 0.152
[16]
  glycan array binding signal (z-score): -0.5
Gal(b1-3)GlcNAc(b1-2)Man
  glycan array binding signal (z-score): 0.185
[17]
  glycan array binding signal (z-score): -0.34
[18]
  glycan array binding signal (z-score): -0.493
